Data as given in paper PMC6165534, “Inhibition of Homophilic Interactions and Ligand Binding of the Receptor for Advanced Glycation End Products by Heparin and Heparin-Related Carbohydrate Structures” (Medicines, 2018).

Assays:
[1] = target: T1, Biotinylated amyloid β 1–42 peptide (UniProt P05067 partial chain, biotin (site not stated)); assay: ELISA; sRAGE Ig-fusion protein (5 mg/mL as printed) bound to protein A coated Maxisorb wells, blocked with BSA; biotinylated ligand 20 nM with or without carbohydrate inhibitors; streptavidin-HRP, absorbance at 490 nm; conditions: both partners purified
T1 construct: amyloid β peptide 1–42, cut product of the amyloid precursor protein; numbers count on: the peptide; also called amyloid β-peptide; Amyloid β peptide 1–42; source: bought: American Peptide

[2] = target: T2, Advanced glycation end product bovine serum albumin (bovine, UniProt P02769, advanced glycation end products (sites not given)); assay: ELISA; Maxisorb wells coated with 20 μg/mL AGE-BSA, blocked with BSA; sRAGE–Ig 0.1 μg/mL with various amounts of glycyrrhizin; HRP goat anti-human IgG, absorbance at 450 nm; conditions: both partners purified
T2 construct: bovine serum albumin, glycated to AGE-BSA; also called AGE-BSA; source: produced as described [35]
T2 sequence (P02769 25-607): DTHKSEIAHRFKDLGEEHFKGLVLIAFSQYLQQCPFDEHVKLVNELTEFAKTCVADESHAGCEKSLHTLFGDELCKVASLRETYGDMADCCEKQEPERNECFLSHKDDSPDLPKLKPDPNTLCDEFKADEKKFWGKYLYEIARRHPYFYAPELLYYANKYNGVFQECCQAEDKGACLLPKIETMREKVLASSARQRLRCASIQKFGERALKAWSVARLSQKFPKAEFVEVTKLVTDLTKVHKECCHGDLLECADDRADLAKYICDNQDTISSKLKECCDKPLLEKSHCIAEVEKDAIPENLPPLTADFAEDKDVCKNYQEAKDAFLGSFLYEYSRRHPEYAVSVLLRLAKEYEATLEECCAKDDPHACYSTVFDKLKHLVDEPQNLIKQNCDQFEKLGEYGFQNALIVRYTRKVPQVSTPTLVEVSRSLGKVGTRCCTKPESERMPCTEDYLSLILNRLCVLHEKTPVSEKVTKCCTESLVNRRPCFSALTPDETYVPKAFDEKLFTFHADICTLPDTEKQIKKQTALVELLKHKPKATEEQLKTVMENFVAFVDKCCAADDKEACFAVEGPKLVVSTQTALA

[3] = target: the molecule itself; assay: bead aggregation assay; monomeric fluorescent protein A coated beads incubated with 10 μg/mL of the Ig-fusion proteins, no other exogenous ligands; aggregation followed by fluorescence microscopy, index Nt/N0, pictures after 60 min

Measured: binding result

B1: Full length extracellular human RAGE (sRAGE) Ig-fusion protein (Fc fusion)
chain: not shown
notes: receptor for advanced glycation end products (RAGE), human, full length extracellular part, […]; also called soluble RAGE; full-length sRAGE–Ig fusion protein; source: Drosophila S2 cells, purified (protein A-agarose chromatography)
binds: all assays above
